Data as given in EP4696711A1, “ANTIGEN BINDING MOLECULE SPECIFICALLY BINDING TO EGFR AND MUC1, DRUG CONJUGATE THEREOF, AND MEDICAL USE THEREOF” (Jiangsu Hengrui Pharmaceuticals Co., Ltd., priority 2023, dated 2024).

Experiments:
[1] = system: human pancreatic acinar epithelial carcinoma cell HPAC tumor-bearing mice; assay: Efficacy of ADCs in in vivo HPAC CDX model; settings: 6 mpk
[2] = system: human non-small cell lung cancer HCC827 tumor-bearing mice; assay: Efficacy of ADCs in in vivo HCC827 CDX model; settings: 6 mpk
HCC827 cells = settings: 6 days, CTG
HPAC cells = settings: 6 days, CTG
[3] = D1 D9, intraperitoneal injection, D30
[4] = one dose, intraperitoneal injection, D30

B1: IgG1-9-A: negative control antibody IgG1 conjugated to toxin 9-A; n = 6.15 (conjugate)
heavy: QVQLVQSGAEVKKPGASVKVSCKASGYTFTNSWIGWFRQAPGQGLEWIGDIYPGGGYTNYNEIFKGKATMTADTSTNTAYMELSSLRSEDTAVYYCSRGIPGYAMDYWGQGTLVTVSS[human IgG1 constant region not spelt out]
light: DIQMTQSPSSLSASVGDRVTMSCKSSQSLLNSGDQKNYLTWYQQKPGKAPKLLIYWASTGESGVPSRFSGSGSGTDFTFTISSLQPEDIATYYCQNDYSYPWTFGQGTKVEIKRTVAAPSVFIFPPSDEQLKSGTASVVCLLNNFYPREAKVQWKVDNALQSGNSQESVTEQDSKDSTYSLSSTLTLSKADYEKHKVYACEVTHQGLSSPVTKSFNRGEC
Mean tumor volume (mm^3) D30 [1, 3]: 1566.45 mm^3
Tumor growth inhibition rate (%) D30 [1, 3]: 7.22%
Number of animals per group (number of deaths) ([1]; number of deaths, D1 D9 i.p.): 8(0)
Mean tumor volume (mm^3) D30 [2, 4]: 751.50 mm^3
Tumor growth inhibition rate (%) D30 [2, 4]: -13.71%
Number of animals per group (number of deaths) ([2]; number of deaths, one dose i.p.): 10(0)
IC50 (HCC827 cells): 163 nM
IMax% (HCC827 cells): 84.25%
IC50 (HPAC cells): > 1000 nM
IMax% (HPAC cells): 50.13%
